The values below come from PMC6919601, “Identification of Plasmodium dipeptidyl aminopeptidase allosteric inhibitors by high throughput screening” (PLoS ONE, 2019).

Read-outs that look alike come from different tables or passages of the source.

The target of series [1] is T1, DPAP1 (Plasmodium falciparum, UniProt Q8IIJ9).
T1 sequence (Q8IIJ9 370-599 limits assumed): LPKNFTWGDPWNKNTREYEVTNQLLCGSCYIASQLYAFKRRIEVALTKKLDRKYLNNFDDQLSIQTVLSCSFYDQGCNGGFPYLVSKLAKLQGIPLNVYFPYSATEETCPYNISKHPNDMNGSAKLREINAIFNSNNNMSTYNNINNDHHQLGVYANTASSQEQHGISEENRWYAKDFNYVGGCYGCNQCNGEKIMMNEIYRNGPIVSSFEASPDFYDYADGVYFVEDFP
T1 sequence (Q8IIJ9 28-209 limits assumed): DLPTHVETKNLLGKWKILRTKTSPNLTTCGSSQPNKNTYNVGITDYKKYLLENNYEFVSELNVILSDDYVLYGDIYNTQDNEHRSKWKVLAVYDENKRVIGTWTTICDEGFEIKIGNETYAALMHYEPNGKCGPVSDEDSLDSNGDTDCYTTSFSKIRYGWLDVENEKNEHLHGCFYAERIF
T1 sequence (Q8IIJ9 600-700 limits assumed): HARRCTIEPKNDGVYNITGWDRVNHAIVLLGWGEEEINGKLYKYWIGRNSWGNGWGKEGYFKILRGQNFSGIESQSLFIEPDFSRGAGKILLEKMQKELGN
The series is described as follows: biochemical. It is filed as biochemical.

Series [2] concerns the target T2, FP3 (Plasmodium falciparum, UniProt Q8IIL0).
T2 sequence (Q8IIL0 243-492): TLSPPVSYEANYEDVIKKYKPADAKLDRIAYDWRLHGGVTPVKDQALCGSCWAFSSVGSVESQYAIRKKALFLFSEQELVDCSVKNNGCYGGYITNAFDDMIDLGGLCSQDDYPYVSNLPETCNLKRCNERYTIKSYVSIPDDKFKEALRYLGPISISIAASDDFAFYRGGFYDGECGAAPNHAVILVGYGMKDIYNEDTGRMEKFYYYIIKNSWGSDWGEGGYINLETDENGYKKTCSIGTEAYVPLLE
The series is described as follows: biochemical.

The target in series [3] is T2, FP3. Conditions: for Maximum % Inhibition FP3: substrate at Km; for IC50: read-out: IC50 FP3, FP3 1 nM, Z-LR-AMC at Km (20 μM), N.I. = no inhibition.
Series [4] deals with T3, DPAP3 (Plasmodium falciparum, UniProt Q8I1Y2). The series is described as follows: biochemical. The following applies: 0.5 h, read-out: Maximum % Inhibition DPAP3.
Series [5] addresses CatC (Bos taurus, UniProt Q3ZCJ8). The series is described as follows: Mechanism of inhibition studies, CatC. Conditions: for CatC β: factor by which kcat (Vmax) is modified at saturating inhibitor. Format: biochemical, bovine.
For series [6], the target named is bovine CatC (Bos taurus, UniProt Q3ZCJ8). The series is described as follows: Dose response inhibition assay, CatC with GR-AMC substrate. The following applies: for Maximum % Inhibition CatC: substrate at Km.
In series [7] the target is T1, DPAP1. The series is described as follows: biochemical. Format: biochemical. Conditions: for DPAP1 inhibition Model: COM competitive, UNC uncompetitive, P-M partial mixed, P-C partial competitive, P-NC partial non-competitive, P-U partial uncompetitive; for DPAP1 α: factor by which Km is modified at saturating inhibitor; for Ki: global fit to MOI model, standard error of fit in parentheses.

The subject of series [8] is P. falciparum. Kind of series: Standard 72 h parasite replication assay. Format: cell-based, Plasmodium falciparum. Conditions: 72h replication assay.
The target in series [9] is T3, DPAP3. The following applies: substrate at Km.
Series [10] has as its target T1, DPAP1. The series is described as follows: biochemical. Details: Endpoint HTS of DPAP1 in P. falciparum trophozoite lysate, (PR)2Rho cleavage, fluorescence 523 nm, 10 uM compound. Conditions: read-out: % inhibition.
Series [11] concerns the target T1, DPAP1. Kind of series: biochemical. The following applies: 10 μM compound, parasite lysates, (PR)2Rho, 30 min end-point. It is filed as biochemical.
For series [12], the system named is WI-38 primary lung fibroblast. The following applies: cited from earlier work.
Series [13] concerns human foreskin fibroblast cells. Kind of series: Cytotoxicity assay, CellTiter-Glo. Conditions: 24h treatment, 4 biological replicates.
The mark [14] stands for this setting: VR-ACC at Km, > = inhibition at the highest concentration, no baseline reached.
Setting [15] is: purified DPAP1 1 nM, VR-ACC at Km (20 μM), standard error in parentheses, ~ = approximate, concentration with 50% inhibition.
[16] abbreviates: read-out: IC50 CatC, CatC 1 nM, GR-AMC at Km (40 μM), N.I. = no inhibition.

CatC, sequence (Q3ZCJ8 231-394 limits assumed): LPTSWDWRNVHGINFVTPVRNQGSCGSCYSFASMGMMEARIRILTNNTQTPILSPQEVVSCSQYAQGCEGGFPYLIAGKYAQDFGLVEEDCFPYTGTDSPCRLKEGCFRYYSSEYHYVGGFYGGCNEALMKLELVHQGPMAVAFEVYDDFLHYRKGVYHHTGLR
CatC, sequence (Q3ZCJ8 25-134 limits assumed): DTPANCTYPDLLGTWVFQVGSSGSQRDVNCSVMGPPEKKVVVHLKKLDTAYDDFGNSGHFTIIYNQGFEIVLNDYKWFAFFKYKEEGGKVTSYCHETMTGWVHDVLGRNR
CatC, sequence (Q3ZCJ8 395-463 limits assumed): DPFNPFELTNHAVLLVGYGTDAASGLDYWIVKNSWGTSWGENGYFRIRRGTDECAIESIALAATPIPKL
bovine CatC, sequence (Q3ZCJ8 231-394 limits assumed): as the sequence (Q3ZCJ8 231-394 limits assumed) above
bovine CatC, sequence (Q3ZCJ8 25-134 limits assumed): as the sequence (Q3ZCJ8 25-134 limits assumed) above
bovine CatC, sequence (Q3ZCJ8 395-463 limits assumed): as the sequence (Q3ZCJ8 395-463 limits assumed) above
T3 sequence (Q8I1Y2 entry or part of it): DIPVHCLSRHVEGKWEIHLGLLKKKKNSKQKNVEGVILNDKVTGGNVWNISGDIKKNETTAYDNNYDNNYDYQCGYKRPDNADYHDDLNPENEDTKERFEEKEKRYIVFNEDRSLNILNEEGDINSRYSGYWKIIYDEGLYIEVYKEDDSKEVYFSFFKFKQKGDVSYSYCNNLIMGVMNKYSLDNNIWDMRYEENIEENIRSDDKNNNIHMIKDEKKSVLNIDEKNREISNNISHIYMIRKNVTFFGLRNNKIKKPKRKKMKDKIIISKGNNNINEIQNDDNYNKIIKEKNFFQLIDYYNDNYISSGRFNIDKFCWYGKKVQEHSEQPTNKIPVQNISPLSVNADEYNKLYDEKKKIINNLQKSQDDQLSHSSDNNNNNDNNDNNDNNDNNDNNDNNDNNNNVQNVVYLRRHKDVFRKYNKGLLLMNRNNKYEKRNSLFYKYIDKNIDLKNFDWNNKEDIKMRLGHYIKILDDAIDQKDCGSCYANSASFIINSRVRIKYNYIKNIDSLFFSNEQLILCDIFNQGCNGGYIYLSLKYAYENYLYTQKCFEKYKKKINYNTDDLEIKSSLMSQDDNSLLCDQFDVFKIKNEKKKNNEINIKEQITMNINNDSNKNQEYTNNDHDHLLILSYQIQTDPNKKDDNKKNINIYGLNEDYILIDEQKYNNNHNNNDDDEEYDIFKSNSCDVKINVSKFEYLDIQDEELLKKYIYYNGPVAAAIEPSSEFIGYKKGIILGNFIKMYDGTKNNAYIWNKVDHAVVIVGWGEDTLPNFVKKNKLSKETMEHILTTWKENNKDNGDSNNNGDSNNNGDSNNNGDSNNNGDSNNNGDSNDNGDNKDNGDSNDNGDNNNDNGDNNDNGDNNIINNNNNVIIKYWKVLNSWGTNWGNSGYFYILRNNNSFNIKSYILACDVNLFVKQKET

What is called IC50 is the concentration needed to halve the response being measured. As usually defined, the Ki is a measure of affinity in units of concentration, obtained from inhibition or displacement. For the compound `CSc1nc(S)c2c3c(sc2n1)CCC3` [SMDC153437A, CSC1=NC(S)=C2C3=C(CCC3)SC2=N1], the half-maximal inhibitory concentration (IC50) in series [1] amounted to 270 nM; in [2] it was 2300 nM; in [6], 1200 nM. In addition, the Emax in [1] (0.5 h, VR-ACC at Km, > = inhibition at the highest concentration, no baseline reached, read-out: Maximum % Inhibition DPAP1) was found to be 80%; in series [2] (0.5 h, read-out: Maximum % Inhibition FP3, substrate at Km), 100%; in series [4] it was 100%; in [6] (0.5 h, read-out: Maximum % Inhibition CatC, substrate at Km) it was 47%. For the same compound, the “Selectivity towards FP3 compared to FP2” value in series [3] (ratio of IC50 values) is “more than 50 fold”. In series [3], the “Maximum % Inhibition FP3” value is on record as “fully inhibits”. Besides, in series [5] (COM competitive, UNC uncompetitive, P-M partial mixed, P-C partial competitive, P-NC partial non-competitive, P-U partial uncompetitive), the “CatC inhibition Model” value was “P-M”. For the same compound, in series [5] (Fig 5H), the “Effect on CatC activity at saturating concentrations of substrate” value is “increases the activity of CatC”. Also, in series [5] (factor by which Km is modified at saturating inhibitor), the “CatC α” value is reported as 2.6 (0.6). The “CatC β” value is > 1 in [5] and 1.7 (0.1) in [5] (listed as 153437A). In addition, the inhibitory constant (Ki) in series [5] (global fit to MOI model, standard error of fit in parentheses, read-out: CatC Ki) is 2400 nM; in [7] it was 60 nM. The “DPAP1 inhibition Model” value in series [7] is “P-M”. Besides, the “DPAP1 α” value in series [7] is listed as 4.0 (1.5). In addition, in series [7] (factor by which kcat (Vmax) is modified at saturating inhibitor, listed as 153437A), the “DPAP1 β” value is listed as 0.35 (0.05). In addition, the inhibition at 100 µM in [8] (Plasmodium falciparum, 100 μM, read-out: Pf % Inh @ 100 μM) came to 28%. The “Maximum % Inhibition DPAP3” value in series [9] is reported as “fully inhibits”.

For `CC[C@H](NC(=O)[C@H](CS(=O)(=O)Cc1ccccc1)O[Si](C(C)C)(C(C)C)C(C)C)C(=O)c1nc2ccccc2o1` [compound 280693, CRA-016024], in series [10], the inhibition at 10 µM was -0.214%.

The term EC50 denotes the concentration needed to bring the measured effect to its halfway point. With “Brc1ccc(cc1)C(=O)c2nocc2C(=O)c3cccnc3 [SMDC112054]”, in [1] (setting [14]), the “Maximum % Inhibition DPAP1” value is reported as 100 (1) %. In series [1] (setting [15]), the half-inhibitory concentration (IC50) amounted to 2700 nM. For the same compound, in series [3], the IC50 came out at 520 nM and the “Maximum % Inhibition FP3” value is on record as 100 (2) %. Moreover, in series [11], the “DPAP1 % Inhibition @ 10 uM” value was determined as 92%. Also, the half-inhibitory concentration (IC50) in series [6] (setting [16]) was 900 nM. The “Maximum % Inhibition CatC” value in series [6] was 100 (3) %. Moreover, in series [12] (10 uM, ref SMDC Assay #440), the “Cell Toxicity WI-38 primary lung fibroblast %Inhibition @ 10 uM” value is 12%. In series [7], the “DPAP1 inhibition Model” value is “COM”, the “DPAP1 α” value is recorded as “= ∞” and the inhibitory constant (Ki) turned out to be 440 nM. Also, the “Pf % Inh @ 100 μM” value in series [8] (100 μM) is 83 (9) %. In series [8] (3 biological replicates, read-out: Pf EC50), the EC50 was 35000 nM. Moreover, in series [13], the “Tox EC50 / Cytox EC50” value was 350 (100) μM. Also, the “Maximum % Inhibition DPAP3” value in [9] was > 35%.

For “FC(F)(F)c1cc(nc(SCC(=O)N2CCOCC2)c1C#N)c3cccs3 [SMDC97214]”, the “Maximum % Inhibition DPAP1” value is reported as “fully inhibits” in series [1] (setting [14]) and 100 (3) % in [1] (VR-ACC at Km, > = inhibition at the highest concentration, no baseline reached, listed as 97214). The IC50 was found to be 7200 nM in series [1] (setting [15]), 680 nM in [3] and 110 nM in [6] (setting [16]). The “Maximum % Inhibition FP3” value in series [3] is reported as “fully inhibits”; in [3] (listed as 97214), 97 (3) %. The “DPAP1 % Inhibition @ 10 uM” value in [11] is reported as 73%. Moreover, the “Maximum % Inhibition CatC” value in series [6] is 80%; in series [6] (listed as 97214) it was 78 (1) %. Moreover, the “Cell Toxicity WI-38 primary lung fibroblast %Inhibition @ 10 uM” value in series [12] was -2%. The “DPAP1 inhibition Model” value in series [7] is listed as “COM”. Besides, the “DPAP1 α” value in [7] is “= ∞”. In [7], the inhibition constant (Ki) was determined as 3000 nM. In series [9], the “Maximum % Inhibition DPAP3” value is listed as > 70%.
